# Test results as given in publication PMC4336329 (PLoS ONE, 2015).
# About 14,000 (4.5%) of roughly 310,000 compounds showed an effect of 50% or more. The effect is printed as a negative number. This is one part of the list.
# Molecular target: human ether-à-go-go-related gene (hERG) potassium channel (human, UniProt Q12809)
# Assay: primary screen, population patch clamp on CHO cells stably expressing hERG
# 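Also: peak tail current of the secondary pulse compared with the same well before compound.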
# Sequence of human ether-à-go-go-related gene (hERG) potassium channel (Q12809 whole entry, looked up): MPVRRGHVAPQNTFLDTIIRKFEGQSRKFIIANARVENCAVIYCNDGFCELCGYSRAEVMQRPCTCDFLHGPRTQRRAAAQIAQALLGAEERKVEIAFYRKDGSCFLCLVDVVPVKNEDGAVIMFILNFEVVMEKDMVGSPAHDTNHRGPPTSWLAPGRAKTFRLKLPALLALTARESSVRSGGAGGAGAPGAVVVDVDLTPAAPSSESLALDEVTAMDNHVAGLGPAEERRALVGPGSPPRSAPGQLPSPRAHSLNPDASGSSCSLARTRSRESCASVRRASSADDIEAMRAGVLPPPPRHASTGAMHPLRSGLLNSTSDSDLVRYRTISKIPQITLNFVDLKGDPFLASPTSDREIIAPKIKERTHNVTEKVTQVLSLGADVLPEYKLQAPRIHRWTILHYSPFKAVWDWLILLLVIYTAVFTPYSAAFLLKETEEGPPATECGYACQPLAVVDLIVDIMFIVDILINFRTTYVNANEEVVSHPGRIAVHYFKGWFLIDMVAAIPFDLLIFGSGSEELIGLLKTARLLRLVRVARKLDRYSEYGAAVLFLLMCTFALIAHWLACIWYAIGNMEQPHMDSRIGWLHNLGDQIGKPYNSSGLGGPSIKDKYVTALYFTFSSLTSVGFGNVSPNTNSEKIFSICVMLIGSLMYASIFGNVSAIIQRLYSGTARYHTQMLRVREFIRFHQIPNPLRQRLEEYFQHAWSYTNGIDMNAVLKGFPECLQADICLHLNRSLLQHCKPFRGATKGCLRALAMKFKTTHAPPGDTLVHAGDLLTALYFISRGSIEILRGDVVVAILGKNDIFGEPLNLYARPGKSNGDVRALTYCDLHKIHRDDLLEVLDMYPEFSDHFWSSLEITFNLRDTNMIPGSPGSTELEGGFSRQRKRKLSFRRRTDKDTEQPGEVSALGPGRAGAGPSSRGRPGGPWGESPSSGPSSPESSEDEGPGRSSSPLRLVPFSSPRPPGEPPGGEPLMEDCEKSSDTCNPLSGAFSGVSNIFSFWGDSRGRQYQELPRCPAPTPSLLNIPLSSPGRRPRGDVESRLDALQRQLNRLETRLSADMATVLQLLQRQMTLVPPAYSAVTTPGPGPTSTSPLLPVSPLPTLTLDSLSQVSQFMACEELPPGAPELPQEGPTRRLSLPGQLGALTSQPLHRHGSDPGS
row,Compound,"hERG current change (%, negative = inhibition) at 10uM"
1,CCc1noc(C)c1C(=O)NC1CCCc2c1cnn2-c1ccc(C(C)(C)C)cc1 (stereo not drawn),10.2%
2,CCN(CC)CC(=O)Nc1c2c(nc3ccccc13)N(C)CC2.O=C(O)C(=O)O,16.5%
3,C[N+](C)(C)CCOC(=O)CBr.[Br-],9.55%
4,COc1ccc(CN2CCNC(=O)C2CC(=O)NCc2csc(C(C)C)n2)c(OC)c1 (stereo not drawn),-2.45%
5,COC(=O)c1cn(NC(=O)c2ccc(F)cc2)c(=O)c2ccccc12,16.6%
6,CC(C)C(CCNC1CCN(C)CC1)c1ccc(Cl)cc1 (stereo not drawn),11.3%
7,O=C(Nc1nc(-c2ccc(-c3ccccc3)cc2)cs1)C1=COCCO1,-2.03%
8,Cc1ccc(-c2nc(Nc3cccc(O)c3)c3ccccc3n2)cc1,11.9%
9,COc1ccc(OC)c(Nc2cc(C(=O)NCCCN3CCOCC3)c3ccccc3n2)c1,-8.94%
10,Cc1[nH]c2ccccc2c1C(=O)COC(=O)C1CCC1,-32%
11,O=C(OCC(=O)N1CCCCCC1)c1ccc(Cl)c(S(=O)(=O)N2CCCC2)c1,-11.2%
12,COc1ccc(CN(CCN)C2CC(C)N(C)CC2C)cc1.Cl (stereo not drawn),7.07%
13,CC(=O)Nc1oc(-c2cccc3ccccc23)nc1C#N,-6.52%
14,Cc1ccc2cccc(S(=O)(=O)N3CCN(c4ccccc4F)CC3)c2n1,-7.22%
15,O=C(NC1CCCCC1)NC1CCN(C(=S)NCc2ccco2)CC1,-12.8%
16,Cc1cc(C)c(NC(=S)N2CCCC2C(=O)O)c(C)c1 (stereo not drawn),1.82%
17,Cn1c(SCC(=O)O)nc2sc3c(c2c1=O)CCC3,30.3%
18,COc1cc(/C=C/C(=O)c2ccc(C)c([N+](=O)[O-])c2)cc(OC)c1O,-0.34%
19,CCn1nnnc1SCC(=O)Nc1cccc(C)n1,2.14%
20,O=C(/C=C/c1ccc(Cl)cc1)NCCc1ccccc1,-12%
21,O=C(COC(=O)C1CC(=O)N(Cc2ccccc2)C1)Nc1ccc(Cl)cc1F (stereo not drawn),48%
22,Cc1ccc(C2(O)CN(c3ccccc3C)C3=[N+]2CCS3)cc1.[Br-] (stereo not drawn),-28.1%

row,Compound,"hERG current change (%, negative = inhibition) at 10uM"
1,COCCn1c(SCC(=O)Nc2ccc(S(=O)(=O)N3CCOCC3)cc2)nc2ccccc21,-58.8%
2,O=C(NCc1cccc(OC(F)(F)F)c1)C1CCC(=O)N(Cc2cccc(F)c2)C1 (stereo not drawn),-50.1%
3,CNc1ccc2nc3ccccc3[n+](C)c2c1.[O-][Cl+3]([O-])([O-])[O-],2.56%
4,CO/N=C(/C)CCS(=O)(=O)c1ccccc1,18.5%
5,Cc1ccc(-c2nn(CCC(=O)NC(C)C)c(=O)c3ccccc23)cc1,9.17%
6,Cc1ccc(C)c(NC(=O)C(C)N2C(=O)c3ccccc3C2=O)c1 (stereo not drawn),9.35%
7,CCOP(=O)(c1ccc(N(C)C)cc1)C(O)c1ccccc1F (stereo not drawn),-14.2%
8,O=C(NNS(=O)(=O)c1ccccc1)c1csc(-c2cccnc2)n1,3.64%
9,COc1ccc(C(C)NC(=O)c2ccccc2Cl)cc1OC (stereo not drawn),0.22%
10,Cc1cc(O)c(C(C)C)cc1NC(=O)Cn1nc(C)c2ccccc2c1=O,-26.3%
11,CCOc1cc(/C=C2\NC(=S)N(C)C2=O)ccc1OCc1ccc(C(=O)O)cc1,14.6%
12,CC(C)C[C@H](NC(=O)c1nc[nH]c1C(=O)N1CCN(c2ccccc2)CC1)C(=O)OCc1ccccc1,-10.2%
13,COc1cc(C(=S)N2CCOCC2)cc(OC)c1OC(=O)c1ccccc1[N+](=O)[O-],12.4%
14,Cc1cc(C)n(CCCN2C(=O)c3cccc4cccc(c34)C2=O)n1,6.71%
15,O=C1C2C(C(=O)N1/N=C/c1cccc([N+](=O)[O-])c1)C1C=CC2C12CC2 (stereo not drawn),-28.3%
16,Cc1onc(-c2ccccc2)c1C(=O)NC(C)C1CCCO1 (stereo not drawn),10.5%
17,O=C(c1ccco1)N1N=C(C2CCCCC2)CC1(O)C(F)(F)F (stereo not drawn),8.06%
18,O=C(Nc1ccc2c(c1)OCCO2)C1CCN(S(=O)(=O)c2ccccc2)CC1,13%
19,CCCc1cc(=O)oc2c(C)c(OCC(=O)Nc3ccc(CN4CCOCC4)cc3)ccc12,-2.71%
20,O=C(NC1CCCCC1)c1ccc(CNc2c(N3CCOCC3)c(=O)c2=O)cc1,4.56%
21,Fc1cccc(C[n+]2csc3ccccc32)c1.[Br-],7.02%
22,CCc1nnc(NC(=O)CCN2C(=O)/C(=C/c3cc(OC)c(OC)c(OC)c3)SC2=S)s1,8.4%

row,Compound,"hERG current change (%, negative = inhibition) at 10uM"
1,COc1cccc(CNC(=O)c2cc3c(cc2Cl)N2CCCCCC2=NS3(=O)=O)c1,-42.9%
2,CCCC[C@@H](CNC)NC[C@H](NCCCCC1CCCCC1)C(C)C,-35.2%
3,N#Cc1c(-c2ccc(Br)cc2)cc(-c2cccnc2)nc1N,18.6%
4,COCCNC(=S)Nc1ccc2nc(N3CCCC3)cc(C)c2c1,-71.6%
5,CC(C)NS(=O)(=O)c1ccc(OCC(=O)NCCC2=CCCCC2)cc1,0.115%
6,Cc1ccc(NC(=O)COC(=O)C2COc3ccccc3O2)cc1 (stereo not drawn),8.65%
7,COC(=O)c1c(NC(=O)C2CC=CCC2C(=O)O)sc2c1CCCCC2 (stereo not drawn),9.24%
8,COc1ccc(S(=O)(=O)Nc2ccccc2C(=O)N2CCCCC2)cc1C,-9.44%
9,O=C(CSc1nnc(COc2ccccc2)o1)N1CCOCC1,5.84%
10,O=C(C1CCN(S(=O)(=O)c2cccc3cccnc23)CC1)N1CCCCC1,9.9%
11,Cc1ccc(-n2c(COc3ccccc3)n[nH]c2=S)cc1,20.5%
12,O=C(O)CCC(=O)N1N=C(c2c(-c3ccccc3)c3cc(Cl)ccc3[nH]c2=O)CC1c1cccs1 (stereo not drawn),10.5%
13,CCc1c(C)nc(SCC(=O)N2CCN(c3ccccc3OC)CC2)[nH]c1=O,13.3%
14,CCCn1c(N)c(N(C)C)c(=O)n(CC(=O)Nc2ccc(OC(F)(F)F)cc2)c1=O,-23.4%
15,O=C(CSc1nnc(-c2ccco2)n1Cc1ccccc1)NC(=O)NCc1ccco1,-74.7%
16,CCN(CC)C(=O)CSc1ncnc2sccc12,0.201%
17,NC(=O)CNC(=O)C1CCCc2c1[nH]c1ccc(Cl)cc21 (stereo not drawn),8.8%
18,COc1ccc(S(=O)(=O)N2CCCCC2)cc1NC(=O)C1CSC2(C)CCC(=O)N12 (stereo not drawn),-20.1%
19,COc1ccc(N2CCN(C(C)C(=O)N3CCc4ccccc43)CC2)cc1 (stereo not drawn),-17.7%
20,O=C(Oc1ccc(OC(=O)c2ccco2)c(S(=O)(=O)c2ccc(Br)cc2)c1)c1ccco1,2.61%
21,CCOc1ccc(S(=O)(=O)Nc2cc(S(=O)(=O)N3CCOCC3)ccc2OC)cc1,-3.5%
22,O=[P+](Cc1ccccc1)Cc1ccccc1,-0.465%

row,Compound,"hERG current change (%, negative = inhibition) at 10uM"
1,COC(=O)C1C(c2ccc(OC)cc2)Nc2nnc(C(F)(F)F)n2C1(C)O (stereo not drawn),10.3%
2,CCN(CC)c1ccc(CNC23CN4CN(CN(C4)C2)C3)cc1,12.5%
3,O=C(NC(Nc1cc(C(F)(F)F)ccc1Cl)C(=O)c1ccccc1)c1ccccc1 (stereo not drawn),13%
4,COC(=O)c1ccnc(SCC(=O)c2ccccc2)c1,3.97%
5,CCN(Cc1ccccc1)C(c1cc2cc(C)ccc2[nH]c1=O)c1nnnn1CCOC (stereo not drawn),-6.03%
6,COc1ccc2nc(NC(=O)Nc3ccccc3OC)sc2c1,24.3%
7,Cc1cccc(C)c1-n1c(C)nn(CC2CC2)c1=O,7.87%
8,CCc1nnc(NC(=O)CCCSc2nc3ccccc3[nH]2)s1,-1.78%
9,CC(=O)Nc1ccn(-c2ccccc2)n1,8.89%
10,COc1cccc(OCC(O)CN2CCC(C)CC2)c1.Cl (stereo not drawn),-12.3%
11,O=C(Nc1ccccn1)C1CCCN1S(=O)(=O)c1ccc(Cl)cc1 (stereo not drawn),-21.4%
12,CN(C)C(CNC(=O)CCc1c[nH]c2ccccc12)c1ccccc1 (stereo not drawn),-5.7%
13,O=C(COc1ccccc1)N/N=C/c1ccc2c(c1)OCO2,29.1%
14,Clc1ccc(CNc2ccc(N3CCN(Cc4ccccc4)CC3)cc2)cc1,2.19%
15,CN=C1S/C(=C\c2ccc(N3CCOCC3)c(F)c2)C(=O)N1C,21.3%
16,Cc1nnsc1-c1nnc(SCC(=O)c2ccc(C#N)cc2)n1C1CC1,-28.9%
17,CCCCOc1ccccc1P(=O)(O)CP(=O)(c1ccccc1)c1ccccc1,-3.64%
18,CN(C)c1ccc(NC(=O)c2cnsn2)cc1,24.8%
19,O=C(CCc1nc2ccccc2c(=O)[nH]1)N1CCN(S(=O)(=O)c2cccc([N+](=O)[O-])c2)CC1,5.1%
20,Cc1n[nH]c(C)c1Sc1ccccc1N=Cc1cc([N+](=O)[O-])ccc1O,-23.8%
21,CCC(=O)O[C@]1(C(=O)SCF)[C@H](C)C[C@H]2[C@@H]3C[C@H](F)C4=CC(=O)C=C[C@]4(C)[C@@]3(F)[C@@H](O)C[C@@]21C,0.475%
